In all, about 33,000 sequences were measured (“E-score (-0.5 to 0.5)”: median about -0.016, highest 2% from about 0.32 on). The list shows a part of the results.
Molecular target: T1, Stp1 (UniProt B3LFK1)
T1 sequence: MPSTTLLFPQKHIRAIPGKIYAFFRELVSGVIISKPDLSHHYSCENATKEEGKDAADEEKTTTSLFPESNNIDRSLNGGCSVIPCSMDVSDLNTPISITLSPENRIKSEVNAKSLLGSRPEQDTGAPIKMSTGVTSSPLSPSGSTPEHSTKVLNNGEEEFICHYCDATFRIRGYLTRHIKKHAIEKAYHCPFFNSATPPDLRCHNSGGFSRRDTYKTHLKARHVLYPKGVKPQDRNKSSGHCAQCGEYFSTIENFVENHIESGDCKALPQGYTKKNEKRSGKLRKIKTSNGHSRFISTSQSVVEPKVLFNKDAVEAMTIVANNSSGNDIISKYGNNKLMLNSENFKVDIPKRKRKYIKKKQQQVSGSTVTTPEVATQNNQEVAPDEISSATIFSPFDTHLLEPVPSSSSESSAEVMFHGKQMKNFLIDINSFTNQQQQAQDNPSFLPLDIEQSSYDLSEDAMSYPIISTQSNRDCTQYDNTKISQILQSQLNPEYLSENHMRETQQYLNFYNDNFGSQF
Assay: PBM E-score (8-mer binding enrichment) (E-score (-0.5 to 0.5)); higher = stronger / more preferred TF binding; most listed sequences are background and not binding sites
Conditions: protein concentration: 200 nM; construct: GST-full length
How it was run: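 Using PURExpress in vitro transcription/translation, GST-tagged yeast transcription factors were made in full-length or DNA-binding-domain form. These were applied at about 100-200 nM to double-stranded universal all-10-mer Agilent arrays, and bound protein was detected with fluorescent anti-GST. Scans were normalised with masliner before the Universal PBM Analysis Suite assigned E-scores to ungapped eight-base words pooled with their reverse complements.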

Row | Sequence | PBM E-score
1 | AGCCTCCT | -0.0608
2 | AATGGCTA | 0.0992
3 | CCCATAAG | -0.0605
4 | ATTGTGTC | -0.066
5 | CAATTCTC | 0.00479
6 | GATCTCGC | 0.0296
7 | AACGGCAG | 0.384
8 | AAGTAAGT | -0.0444
9 | ACTTATAC | 0.082
10 | AAAGTTAA | 0.102
11 | CAAGTTGA | 0.152
12 | GACCATCA | -0.204
13 | CTGCCGCC | 0.226
14 | GTTGCCTA | 0.0499
15 | AGTCGGAC | -0.226
16 | TACTATGA | -0.00845
17 | GAGCGCTC | -0.273
18 | ATTTATTG | 0.0483
19 | ATACCGCG | 0.0435
20 | ATAGAAAG | -0.00223
21 | GTTGGACA | -0.0765
22 | ACTTATGG | -0.0126
23 | CCATTGAG | 0.149
24 | AACAGTAT | 0.102
25 | GCTGGGTA | -0.175
26 | ATGCACTC | -0.0521

Row | Sequence | PBM E-score
27 | ACAGATAG | -0.0308
28 | CCGATTTC | -0.197
29 | AACTTCTC | -0.0459
30 | CCCCGCCC | 0.139
31 | ATACCAAA | 0.125
32 | ATTTCGTA | 0.0445
33 | CTTGAGAA | 0.0607
34 | GGAGTTTA | 0.0317
35 | AACGTTCC | -0.0561
36 | CACGCATC | 0.0489
37 | GCCGATAC | 0.166
38 | CGAAATGC | 0.058
39 | TAACAGGA | 0.082
40 | AACGAGTG | 0.0141
41 | ATACTCCG | -0.0692
42 | CCGGTTAG | 0.0271
43 | ACCCTCAT | -0.294
44 | AGTACCAC | -0.175
45 | CGGCGCAG | 0.428
46 | GCTAGTGA | -0.112
47 | CGCCTAAC | 0.173
48 | CTCCAAGA | -0.0573
49 | CTGGAGTC | -0.362
50 | CTACCGAA | -0.205
51 | AGGATTCA | 0.018
52 | TACTGTCA | -0.0638

Row | Sequence | PBM E-score
53 | CAACAATA | 0.155
54 | ACCCCCCT | -0.476
55 | ACGTATAC | 0.115
56 | CTTTCCAC | -0.0511
57 | CATGGTAA | -0.078
58 | AATTGCGC | 0.258
59 | ACCCTCGT | -0.093
60 | GGCTAGTA | 0.134
61 | AGTTAGGA | -0.0341
62 | ACTTCCCG | -0.0848
63 | CACTTCCG | -0.0304
64 | CCACTCGA | 0.133
65 | AACATTGA | 0.119
66 | CGTGAGAA | -0.00801
67 | CGTGGGCA | -0.0733
68 | CGTATCGA | -0.0269
69 | CATGGCAC | 0.311
70 | CGCGGGAC | -0.1
71 | AGTTAGTC | -0.253
72 | ACGCAAGT | -0.141
73 | AGGAATGA | 0.00228
74 | GTGCGACA | -0.0105
75 | AGGACAGA | -0.232
76 | GACCAGTC | -0.129
77 | ATGGTGAG | -0.2
78 | GCTTCTAC | 0.0532

Row | Sequence | PBM E-score
79 | AGCAATGG | -0.197
80 | AGTTGTAA | 0.0158
81 | ATTTTATA | 0.255
82 | CTCCGATA | -0.217
83 | CCGGTGAC | -0.284
84 | ACTAGCAC | -0.237
85 | GAACTAGA | 0.148
86 | ACGCTGCT | -0.216
87 | CAAATTGC | 0.115
88 | GGAGGAGA | -0.317
89 | CCTCCCAA | -0.151
90 | CTTGAATA | 0.0938
91 | CTGGCGAC | -0.178
92 | AACCGTCA | -0.225
93 | AACCTTCG | -0.00287
94 | CGTCTCTA | -0.236
95 | GCAAATAA | 0.232
96 | ATATGCTA | 0.0789
97 | ATTCCCAG | -0.0955
98 | CCTTCAAA | 0.0503
99 | TAGGTAGA | -0.0558
100 | AAGTAAAG | -0.116
101 | GTACTCAC | 0.0627
102 | TTGTCAAA | 0.151
103 | CCTAACAA | 0.103
104 | CATCGCTC | -0.0903

Row | Sequence | PBM E-score
105 | GTATTAAA | 0.245
106 | CAGGCTGC | -0.119
107 | CCAGGAGA | -0.0605
108 | CATGGAGA | -0.135
109 | GGATCGCA | -0.0944
110 | CCCCTAAA | -0.228
111 | CCTGATAA | 0.0292
112 | GGGTCCGA | -0.218
113 | TACTTTGA | 0.0852
114 | TAACGGTA | 0.0369
115 | GGCGTACC | 0.106
116 | CCAAGTGA | -0.153
117 | ATCGCACC | -0.169
118 | AAGGTTCC | -0.0856
119 | GGCGGTAA | 0.163
120 | GTTTTGAA | 0.181
121 | CCGATAAC | -0.0332
122 | ACAGTGAT | 0.0195
123 | ATTAGGAG | 0.103
124 | ATGGAAGC | 0.0002
125 | CAGACATC | 0.00256
126 | AATGCGGG | 0.174
127 | TCGATACA | 0.194
128 | AAACTTAG | 0.0613
129 | ATCTGCCC | -0.219
